# Test results reported in PubChem BioAssay AID463173 (ICCB-Longwood Screening Facility, Harvard Medical School, 2010).
# Among all 52,000 compounds or so, about 4,300 (8.3%) were called active. No stated cut-off is given here; in the data, active means survival mostly below about 52% (no sharp cut-off); inactive means mostly above about 56%. The list shows a part of the results.
# System: DeltatarO mutant
# Assay: S. aureus survival, RN4220 and DeltatarO strains – OD600, teichoic acid synthesis inhibitors, primary screen (AID 463173)
# Conditions: S. aureus RN4220 wild type/DeltatarO growth, OD600, 18 h, active compounds read low, screened at 18.75 µg/mL (by protocol)
row,Compound,survival
1,CCc1ccc(-n2nc(CO)c(C(=O)NC)n2)cc1,inactive: 44%
2,COc1ccc(-c2nc(CS(=O)CC(=O)NCCc3ccc(Cl)cc3)c(C)o2)cc1OC (stereo not drawn),inactive: 72%
3,CC(C)CCNC(=O)C1CCN(C(=O)c2cc3sccc3n2Cc2ccc(Cl)cc2)CC1,active: 40%
4,Cc1ccc(CS(=O)(=O)c2ncc(Cl)c(C(=O)Nc3nnc(C(C)C)s3)n2)cc1,inactive: 54%
5,Cc1ccccc1-c1noc(-c2ccc(N3CCN(c4ccccc4)CC3)c([N+](=O)[O-])c2)n1,inactive: 87%
6,O=C(NCc1cccnc1)c1ccc(NC(=O)c2ccco2)cc1,inactive: 96%
7,CC(=O)OCc1cc(=O)n2nc(C3CCCCC3)sc2n1,inactive: 84%
8,O=C(COc1ccccc1)Nc1sc2c(c1C(=O)Nc1ccccc1Cl)CCCCC2,active: 56%
9,CCN(Cc1nc(-c2cccc(C)c2)no1)S(=O)(=O)c1ccc(C)cc1,active: 43%
10,Cc1ccc(C)c(N2C(=O)N(Cc3c(F)cccc3Cl)c3ccccc3S2(=O)=O)c1,inactive: 77%
11,COc1ccc(N(CC(=O)Nc2ccc(C)c(C)c2)S(=O)(=O)c2ccc(C)cc2)cc1OC,inactive: 55%
12,CC1CCCCN1C(=O)Cn1cc(C(=O)C2CC2)c2ccccc21 (stereo not drawn),inactive: 88%
13,Cc1cccc(C)c1NC(=O)CN1C(=O)CCSc2ccc(S(=O)(=O)N3CCCC3)cc21,inactive: 84%
14,COC(=O)c1cc(NC(=O)Nc2ccc3snnc3c2)cc(C(=O)OC)c1,inactive: 72%
15,COc1ccc(-c2nsc3c(N4CCN(S(=O)(=O)c5cccc(F)c5)CC4)ncnc23)cc1,inactive: 98%
16,CC(=O)c1ccc(N2CCN(c3ncnc4c3c(-c3ccccc3)cn4-c3ccc(C)c(Cl)c3)CC2)cc1,inactive: 89%
17,CC(C)Cn1c(=O)c2ccccc2n2c(CCC(=O)N3CCN(c4cccc(Cl)c4)CC3)nnc12,inactive: 76%
18,COCCCN(Cc1ccco1)C(=O)c1cc2c(s1)-c1ccccc1OC2,active: -3%
19,Cc1ccc(NC(=O)C(=O)NCC(c2cccnc2)N2CCOCC2)cc1 (stereo not drawn),inactive: 82%
20,CC1CCN(C(=O)c2ccc3c(c2)N(Cc2ccccc2F)C(=O)c2ccccc2S3(=O)=O)CC1,inactive: 80%
21,COc1ccc(S(=O)(=O)n2nc(C)c(S(=O)(=O)N3CCCCC3)c2C)cc1,inactive: 67%
22,Cc1c(Cl)cccc1-n1ncc(C(=O)N2CCN(C)CC2)c1C1CCN(C(=O)OC(C)(C)C)CC1,inactive: 94%

row,Compound,survival
1,COc1ccc(CNC(=O)Cn2nc(C)n3cccc3c2=O)cc1,inactive: 96%
2,COc1ccc(-c2nc(SCC(=O)NC3CCCC3)c(-c3ccc(OC)cc3)[nH]2)cc1,inactive: 71%
3,COc1ccccc1N1CCN(C(=O)c2cc3c(=O)n(C)c4ccccc4c3s2)CC1,inactive: 73%
4,COc1ccc(S(=O)(=O)N(CCc2ccccc2)CC(=O)NCc2ccccc2)cc1,inactive: 76%
5,COCCN1C(=O)c2oc3cc(C)cc(C)c3c(=O)c2C1c1cccc(O)c1 (stereo not drawn),inactive: 71%
6,COc1ccc(CNC(=O)c2cc3c(-c4ccc(Cl)cc4)nn(C)c3s2)cc1,inactive: 112%
7,CCOC(=O)c1cccc(NC(=O)Cn2nc3c(cc2=O)CCCC3)c1,active: 37%
8,Cn1c(=O)n(C)c2cc(NS(=O)(=O)c3ccc(F)cc3)c(NCc3ccccc3)cc21,inactive: 68%
9,Cc1ccc(N2CC(C(=O)NCCS(=O)(=O)N3CCN(c4ccccc4)CC3)CC2=O)cc1 (stereo not drawn),inactive: 77%
10,COc1ccc(CCNC(=O)Cn2cc(C(=O)c3ccc(Cl)cc3)c(=O)c3ccc(C)nc32)cc1OC,inactive: 79%
11,CCOC(=O)C1CCN(c2nc3c(S(=O)(=O)c4ccc(Br)cc4)nnn3c3ccsc23)CC1,inactive: 76%
12,FC(F)(F)c1cccc(-n2cc(-c3ccccc3)c3c(N4CCCCC4)ncnc32)c1,inactive: 83%
13,CCCN(CCC)CCNC(=O)Cn1cnc2sc(C)c(S(=O)(=O)N3CCC(C)CC3)c2c1=O,inactive: 67%
14,COc1ccc(C(=O)NCCn2cc(SCc3cccc(F)c3)c3ccccc32)cc1OC,inactive: 52%
15,COc1ccccc1CNC(=O)CN1C(=O)CCc2cc(S(=O)(=O)N3CCCCC3)ccc21,inactive: 81%
16,O=C(CSc1nc(-c2cccs2)nc2cc(=O)[nH]n12)Nc1ccccc1,inactive: 73%
17,Cc1nn(-c2ccc(N3CCCCC3)nn2)c(C)c1CCC(=O)NCc1ccc(F)cc1,inactive: 86%
18,CCc1ccccc1NC(=O)CN1C(=O)CCn2nc(-c3cccn3C)cc21,inactive: 79%
19,Cc1ccc(-c2c(CN3CCN(c4cc(C)ccc4C)CC3)csc2C)cc1,inactive: 126%
20,Cc1c(C(=O)NC(C)c2ccccc2)sc2ncnc(N(C)C3CCCCC3)c12 (stereo not drawn),inactive: 105%
21,O=S(=O)(Nc1ccc(-c2ccc(N3CCCCC3)nn2)cc1)c1ccc(OC(F)(F)F)cc1,inactive: 82%
22,CCN(CC)C(=O)CSc1nnc2ccc3ccccc3n12,inactive: 73%

row,Compound,survival
1,CCc1c(C)nc2c(C)cccc2c1Cl,inactive: 100%
2,COCCn1c(C)cc(O)c(C(c2ccccc2)N2CCC(C)CC2)c1=O (stereo not drawn),inactive: 78%
3,CCc1ccccc1Nc1cc(C(=O)NCc2ccc(C)cc2)c2ccccc2n1,inactive: 69%
4,COc1ccc(N2C(=O)CSC23C(=O)N(C)c2ccccc23)cc1Cl (stereo not drawn),inactive: 82%
5,O=C(c1c2c(nc3ccccc13)C(=O)N(C1CCCCC1)C2)N1CCN(c2ccc(F)cc2)CC1,inactive: 102%
6,CCOC(=O)N1CCN(C(=O)c2ccc3c(c2)N(Cc2ccccc2F)C(=O)c2ccccc2S3=O)CC1 (stereo not drawn),inactive: 93%
7,COC(=O)c1c(NC(=O)c2cc(=O)c3c(C)cc(C)cc3o2)sc2c1CCCC2,inactive: 61%
8,Cc1ccc(-n2ncc3c(N4CCN(c5ccccc5)CC4)ncnc32)cc1C,inactive: 92%
9,Cc1cccc(NC(=O)CN(c2ccc(C(C)C)cc2)S(=O)(=O)c2c(C)nn(C)c2C)c1C,active: 42%
10,CCOC(=O)C1CCN(S(=O)(=O)c2cc(-c3onc(C)c3C)ccc2C)CC1,inactive: 91%
11,CCOc1cc(CNS(=O)(=O)c2ccc3c(c2)CC(=O)N3C)cc(OCC)c1OCC,inactive: 98%
12,O=C(Nc1ccc(C(=O)N2CCN(c3ccc(F)cc3)CC2)cc1)c1nsc2ccccc12,inactive: 81%
13,CCN1CCN(CCCNC(=O)c2ccc3nc(Cc4ccc(OC)cc4)oc3c2)CC1,inactive: 99%
14,CC(C)C(=O)Nc1ccc(Br)cc1,inactive: 103%
15,Cc1cc(C)n(C(C)CC(=O)NCc2ccccc2C)n1 (stereo not drawn),inactive: 79%
16,COc1ccc(Br)cc1C(=O)Nc1ccc2oc(-c3cccnc3)nc2c1,inactive: 117%
17,CC(=O)Nc1ccc(S(=O)(=O)N2CCC(c3ccncc3)CC2)cc1,active: -5%
18,CCCCN(CCCC)c1ncnc2c1cnn2-c1cccc(C)c1,inactive: 74%
19,CCOC(=O)c1c(S(=O)(=O)N2CCCC(C(=O)Nc3ccc(OCC)cc3)C2)c(C)n(C)c1C (stereo not drawn),inactive: 99%
20,COc1ccc(C)cc1Nc1nc2c(S(=O)(=O)c3cccc(Cl)c3)nnn2c2ccsc12,inactive: 51%
21,Cc1ccc(S(=O)(=O)c2cn(Cc3cccc(F)c3)c3cc(N4CCCC4)c(F)cc3c2=O)cc1,inactive: 70%
22,Cc1ccc(-c2cc(NC(=O)c3ccccc3Cl)on2)cc1,inactive: 59%

row,Compound,survival
1,CCCOc1ccccc1-c1nc(SCC(=O)c2ccccc2)n[nH]1,inactive: 109%
2,CCN(CC)c1nn2c(=O)c(C(=O)NCCc3ccc(C)cc3)cnc2s1,inactive: 87%
3,CCn1c2ccccc2c2nnc(N3CCN(c4ccc(F)cc4)CC3)nc21,inactive: 75%
4,Cc1nc2sc(C(=O)N(C)Cc3ccccc3)c(NC(=O)c3ccccc3)c2c(C)c1Cl,inactive: 60%
5,Cc1cccc(N2CCN(C(c3nnnn3C3CCCC3)C(C)C)CC2)c1C (stereo not drawn),inactive: 79%
6,CCOC(=O)c1cc2c(=O)n3ccccc3nc2n(CC2CCCO2)c1=NC(=O)c1ccc(C(C)(C)C)cc1 (stereo not drawn),inactive: 59%
7,CCOc1ccc(CNC(=O)c2ccc(Sc3ccc(Cl)cc3)c(NC(C)=O)c2)cc1,inactive: 115%
8,CCCC(=O)Nc1ccc2c(c1)nc(CN1CCN(C(=O)OCC)CC1)n2C(C)C,inactive: 103%
9,COc1ccc(NC(=O)CSc2cn(CC(=O)N3CCCCC3)c3ccccc23)c(OC)c1,inactive: 76%
10,COc1ccccc1CNC(=O)Cc1c(C)c2c(cc(C)c3c(C)c(C)oc32)oc1=O,inactive: 84%
11,CC(C)(C)C(=O)N(CCc1ccccc1)Cc1nc2ccccc2c(=O)[nH]1,inactive: 81%
12,CCCC(=O)N(C)c1nnc(-c2ccc(F)cc2)s1,inactive: 99%
13,Cc1ccccc1C(=O)c1cccn1CC(=O)NCc1ccc(Cl)cc1,inactive: 82%
14,CCC1CN(C(=O)NCc2cccc(OC)c2)c2cc(Cl)ccc2O1 (stereo not drawn),active: 43%
15,COc1ccc(CCNC(=O)CCCn2c(=O)c3cccn3c3cccnc32)cc1OC,inactive: 90%
16,Cc1ccc2c(CN3CCN(Cc4ccccc4Cl)CC3)cc(=O)oc2c1,inactive: 43%
17,CCCCC1CCC(C(=O)N2CC(=O)Nc3ccc(F)cc3C2c2ccc(F)cc2)CC1 (stereo not drawn),active: 38%
18,CCCOc1ccc(/C=C/C(=O)Nc2sc(C)c(C)c2C(=O)OCC)cc1OC,inactive: 47%
19,CCOc1ccc(S(=O)(=O)NCCc2csc(-c3ccc(Cl)cc3)n2)cc1,inactive: 91%
20,Cc1nc(S(=O)(=O)N2CCN(c3ccc(Cl)cc3)CC2)cn1C,inactive: 69%
21,Cc1nnc(SCc2cc(=O)c3ccccc3[nH]2)s1,inactive: 125%
22,CCOc1ccc(CCNC(=O)c2ccc(-c3nc(CSc4ccc(C)cc4)c(C)o3)cc2)cc1,inactive: 76%
